Results are given in words; binding and its absence hold for the method and conditions named. For some of these results: In cells and extracts the contact can be indirect. Some results given as binding are weak or reduced against the parent protein; the word gives no strength. For some of these results: Tags and fused reporters may be left off the sequences shown.
Assays:
[1] = biological target: HsFA1a^WT in pGBKT7 (BD) (Arabidopsis thaliana) (UniProt P41151); test: two-hybrid; CRY1 as prey in pGADT7 (AD), HsF as bait in pGBKT7 (BD), co-transformed into yeast Y187; liquid beta-galactosidase assay with CPRG, Miller units; not detected (ND) if OD578 <0.01 after 3 h of color development
[2] = biological target: HsFA1b^WT in pGBKT7 (BD) (Arabidopsis thaliana) (UniProt O81821); test: as above
[3] = biological target: HsFA3^(K174A K177A E178A) in pGBKT7 (BD) (Arabidopsis thaliana) (UniProt Q8GYY1); test: as above
[4] = biological target: HsFA3^(K174A K177A) in pGBKT7 (BD) (Arabidopsis thaliana) (UniProt Q8GYY1); test: as above
[5] = biological target: HsFA4C^WT in pGBKT7 (BD) (Arabidopsis thaliana) (UniProt Q9FK72); test: as above
[6] = biological target: T1, HsFA9^WT in pGBKT7 (BD) (Arabidopsis thaliana) (UniProt Q9LVW2); test: as above
T1 sequence: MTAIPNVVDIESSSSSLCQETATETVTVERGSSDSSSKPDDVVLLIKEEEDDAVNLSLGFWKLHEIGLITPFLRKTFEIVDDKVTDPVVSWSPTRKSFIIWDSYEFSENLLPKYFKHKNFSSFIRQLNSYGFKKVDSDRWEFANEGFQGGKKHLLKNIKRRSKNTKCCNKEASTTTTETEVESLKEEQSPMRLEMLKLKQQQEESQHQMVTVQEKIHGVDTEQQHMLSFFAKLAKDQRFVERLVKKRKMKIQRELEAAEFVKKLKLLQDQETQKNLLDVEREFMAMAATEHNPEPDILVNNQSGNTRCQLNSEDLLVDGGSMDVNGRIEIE

Chains of the proteins cited; added tags and fusions are not shown. Lines headed by an entry give the natural chain unless they say otherwise; changes in a name come on top. A line that says so, or that is headed by a name, gives the form on record, which may keep a tag or linker. Residues count along the entry.
UniProt P41151: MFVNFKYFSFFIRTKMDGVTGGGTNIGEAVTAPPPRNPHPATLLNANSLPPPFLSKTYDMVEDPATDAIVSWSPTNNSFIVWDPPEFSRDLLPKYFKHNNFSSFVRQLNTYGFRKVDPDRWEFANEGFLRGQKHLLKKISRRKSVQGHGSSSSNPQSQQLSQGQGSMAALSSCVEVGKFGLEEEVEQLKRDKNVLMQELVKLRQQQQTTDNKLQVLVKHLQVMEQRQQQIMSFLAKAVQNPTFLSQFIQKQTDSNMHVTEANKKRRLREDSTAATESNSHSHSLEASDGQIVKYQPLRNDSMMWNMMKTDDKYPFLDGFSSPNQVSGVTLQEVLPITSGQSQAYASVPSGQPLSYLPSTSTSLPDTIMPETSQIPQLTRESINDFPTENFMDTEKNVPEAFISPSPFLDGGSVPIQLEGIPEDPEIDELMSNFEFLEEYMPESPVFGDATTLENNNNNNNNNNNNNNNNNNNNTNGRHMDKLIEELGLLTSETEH
UniProt O81821: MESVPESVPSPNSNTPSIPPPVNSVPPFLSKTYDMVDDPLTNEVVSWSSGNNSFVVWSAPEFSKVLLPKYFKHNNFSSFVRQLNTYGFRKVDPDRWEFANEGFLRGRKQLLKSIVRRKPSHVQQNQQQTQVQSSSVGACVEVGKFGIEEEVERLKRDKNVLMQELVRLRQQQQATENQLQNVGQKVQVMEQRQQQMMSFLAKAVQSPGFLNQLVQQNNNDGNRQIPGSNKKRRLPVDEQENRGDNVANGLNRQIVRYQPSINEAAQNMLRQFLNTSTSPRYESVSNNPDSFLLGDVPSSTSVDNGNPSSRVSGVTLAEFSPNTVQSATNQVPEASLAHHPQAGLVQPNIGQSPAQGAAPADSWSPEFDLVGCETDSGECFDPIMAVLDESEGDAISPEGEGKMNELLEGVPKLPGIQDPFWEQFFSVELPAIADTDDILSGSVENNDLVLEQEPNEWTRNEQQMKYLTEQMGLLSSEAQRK
UniProt Q8GYY1: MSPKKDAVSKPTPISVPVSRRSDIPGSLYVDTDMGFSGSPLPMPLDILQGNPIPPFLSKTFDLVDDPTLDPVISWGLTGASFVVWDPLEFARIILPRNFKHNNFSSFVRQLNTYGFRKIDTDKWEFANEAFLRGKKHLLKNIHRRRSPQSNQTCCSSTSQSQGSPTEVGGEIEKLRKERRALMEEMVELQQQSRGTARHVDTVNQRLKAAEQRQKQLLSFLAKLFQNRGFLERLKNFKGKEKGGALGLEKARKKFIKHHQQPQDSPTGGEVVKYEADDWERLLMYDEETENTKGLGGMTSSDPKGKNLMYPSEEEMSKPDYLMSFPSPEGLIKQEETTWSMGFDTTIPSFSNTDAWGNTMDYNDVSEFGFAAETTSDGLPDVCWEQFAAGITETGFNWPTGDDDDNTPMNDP
HsFA3^Δ(168-228)-cYFP (Q8GYY1, form named): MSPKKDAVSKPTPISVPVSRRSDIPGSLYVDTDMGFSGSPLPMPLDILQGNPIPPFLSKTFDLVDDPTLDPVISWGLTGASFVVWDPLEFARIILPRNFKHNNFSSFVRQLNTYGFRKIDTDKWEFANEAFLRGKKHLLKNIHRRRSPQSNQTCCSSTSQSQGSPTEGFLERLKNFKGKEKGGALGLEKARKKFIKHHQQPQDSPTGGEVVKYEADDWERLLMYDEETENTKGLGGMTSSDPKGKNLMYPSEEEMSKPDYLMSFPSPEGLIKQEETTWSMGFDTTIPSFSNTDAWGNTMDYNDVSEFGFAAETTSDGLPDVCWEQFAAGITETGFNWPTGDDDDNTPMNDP
UniProt Q9FK72: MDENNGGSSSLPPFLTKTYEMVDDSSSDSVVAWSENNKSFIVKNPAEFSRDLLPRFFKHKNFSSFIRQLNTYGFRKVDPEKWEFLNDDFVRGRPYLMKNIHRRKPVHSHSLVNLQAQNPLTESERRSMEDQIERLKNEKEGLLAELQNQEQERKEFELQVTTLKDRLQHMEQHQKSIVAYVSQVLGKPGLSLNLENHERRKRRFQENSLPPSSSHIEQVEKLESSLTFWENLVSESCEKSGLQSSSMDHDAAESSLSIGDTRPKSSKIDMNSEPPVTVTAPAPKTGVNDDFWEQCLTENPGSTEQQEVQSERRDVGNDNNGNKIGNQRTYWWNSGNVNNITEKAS
UniProt Q9T0D3: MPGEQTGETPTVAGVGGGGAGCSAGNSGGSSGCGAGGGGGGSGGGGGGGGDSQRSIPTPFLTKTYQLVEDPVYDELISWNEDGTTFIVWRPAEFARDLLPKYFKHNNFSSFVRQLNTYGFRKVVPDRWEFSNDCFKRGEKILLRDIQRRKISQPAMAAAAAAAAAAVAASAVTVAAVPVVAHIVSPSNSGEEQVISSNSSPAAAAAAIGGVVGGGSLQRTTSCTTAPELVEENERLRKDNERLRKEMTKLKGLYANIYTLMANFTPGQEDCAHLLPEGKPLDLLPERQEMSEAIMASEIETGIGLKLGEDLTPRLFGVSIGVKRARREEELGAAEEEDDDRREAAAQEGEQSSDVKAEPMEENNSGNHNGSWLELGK
UniProt Q9LQM7: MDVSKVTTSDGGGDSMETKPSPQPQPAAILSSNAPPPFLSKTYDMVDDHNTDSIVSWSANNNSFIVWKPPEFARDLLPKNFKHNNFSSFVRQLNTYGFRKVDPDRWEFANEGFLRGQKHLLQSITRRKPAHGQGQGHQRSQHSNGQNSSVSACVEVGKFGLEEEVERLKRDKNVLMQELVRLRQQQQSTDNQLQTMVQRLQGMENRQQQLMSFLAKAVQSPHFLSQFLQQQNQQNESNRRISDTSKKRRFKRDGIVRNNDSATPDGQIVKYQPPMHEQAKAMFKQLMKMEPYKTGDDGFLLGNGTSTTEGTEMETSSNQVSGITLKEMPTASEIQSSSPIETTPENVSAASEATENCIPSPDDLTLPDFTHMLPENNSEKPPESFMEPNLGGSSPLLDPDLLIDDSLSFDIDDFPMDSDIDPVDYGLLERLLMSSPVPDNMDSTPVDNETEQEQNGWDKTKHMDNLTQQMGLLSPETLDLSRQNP
HsFA1d^Δ(160-220)-cYFP (Q9LQM7, form named): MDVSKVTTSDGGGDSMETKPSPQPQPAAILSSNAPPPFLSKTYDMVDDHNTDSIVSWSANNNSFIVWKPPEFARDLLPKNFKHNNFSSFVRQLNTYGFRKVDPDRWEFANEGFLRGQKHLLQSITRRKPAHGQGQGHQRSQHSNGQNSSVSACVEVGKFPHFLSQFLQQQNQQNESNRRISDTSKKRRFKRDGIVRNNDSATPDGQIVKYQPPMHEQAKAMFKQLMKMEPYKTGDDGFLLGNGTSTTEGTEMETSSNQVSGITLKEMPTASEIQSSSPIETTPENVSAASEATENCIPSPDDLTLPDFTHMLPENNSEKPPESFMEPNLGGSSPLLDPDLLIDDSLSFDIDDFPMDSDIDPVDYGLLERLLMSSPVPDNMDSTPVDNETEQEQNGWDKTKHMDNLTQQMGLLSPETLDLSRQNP
UniProt Q9LV52: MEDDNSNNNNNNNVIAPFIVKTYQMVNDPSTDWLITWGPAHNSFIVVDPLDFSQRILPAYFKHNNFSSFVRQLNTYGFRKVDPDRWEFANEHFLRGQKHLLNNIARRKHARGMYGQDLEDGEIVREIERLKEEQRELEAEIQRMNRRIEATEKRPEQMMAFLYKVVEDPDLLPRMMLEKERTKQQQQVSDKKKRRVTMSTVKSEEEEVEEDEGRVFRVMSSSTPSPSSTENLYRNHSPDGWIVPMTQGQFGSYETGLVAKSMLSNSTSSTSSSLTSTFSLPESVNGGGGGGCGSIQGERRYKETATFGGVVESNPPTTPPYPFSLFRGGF
UniProt Q43125, residues 1-508: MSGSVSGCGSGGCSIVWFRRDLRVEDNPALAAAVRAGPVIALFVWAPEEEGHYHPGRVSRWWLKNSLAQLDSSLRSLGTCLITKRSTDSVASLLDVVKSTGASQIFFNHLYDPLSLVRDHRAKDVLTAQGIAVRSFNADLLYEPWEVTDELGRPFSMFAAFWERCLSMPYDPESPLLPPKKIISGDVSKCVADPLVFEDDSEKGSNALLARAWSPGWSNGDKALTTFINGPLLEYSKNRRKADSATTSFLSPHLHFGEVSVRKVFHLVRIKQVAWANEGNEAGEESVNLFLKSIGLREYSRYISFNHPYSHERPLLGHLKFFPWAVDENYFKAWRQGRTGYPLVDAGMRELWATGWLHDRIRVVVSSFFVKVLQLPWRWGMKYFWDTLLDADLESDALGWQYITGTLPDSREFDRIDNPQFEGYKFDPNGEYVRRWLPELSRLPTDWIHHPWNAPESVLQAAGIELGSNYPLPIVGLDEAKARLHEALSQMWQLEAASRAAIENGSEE

[7] = biological target: HsFB2b^K249E in pGBKT7 (BD) (Arabidopsis thaliana) (UniProt Q9T0D3); test: as above
[8] = biological target: HsFB2b^WT in pGBKT7 (BD) (Arabidopsis thaliana) (UniProt Q9T0D3); test: as above
[9] = biological target: T2, HsFB3^WT in pGBKT7 (BD) (Arabidopsis thaliana) (UniProt O22230); test: as above
T2 sequence: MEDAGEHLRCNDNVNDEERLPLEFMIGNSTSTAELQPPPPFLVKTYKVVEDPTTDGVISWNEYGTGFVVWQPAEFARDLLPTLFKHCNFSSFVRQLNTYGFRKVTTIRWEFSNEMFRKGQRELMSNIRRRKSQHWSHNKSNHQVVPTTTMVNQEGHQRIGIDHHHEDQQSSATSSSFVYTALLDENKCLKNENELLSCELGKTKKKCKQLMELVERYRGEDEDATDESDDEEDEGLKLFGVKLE

[10] = biological target: HsFA1d^WT-cYFP (Arabidopsis thaliana) (UniProt Q9LQM7); test: split reporter; BiFC: CRY1-nYFP and HsF-cYFP (2X35S, pPZP) agroinfiltrated into N. benthamiana leaves; confocal microscopy two days after infiltration; mCherry as marker of expression
[11] = biological target: HsFA1d^Δ(160-220)-cYFP (Arabidopsis thaliana) (UniProt Q9LQM7); test: as above
[12] = biological target: HsFA3^WT-cYFP (Arabidopsis thaliana) (UniProt Q8GYY1); test: as above
[13] = biological target: HsFA3^Δ(168-228)-cYFP (Arabidopsis thaliana) (UniProt Q8GYY1); test: as above
[14] = biological target: HsFB2b^WT-cYFP (Arabidopsis thaliana) (UniProt Q9T0D3); test: as above
[15] = biological target: HsFC1^R129E-cYFP (Arabidopsis thaliana) (UniProt Q9LV52); test: as above
[16] = biological target: HsFC1^WT-cYFP (Arabidopsis thaliana) (UniProt Q9LV52); test: as above

Substance	binding [1]	binding [2]	binding [3]	binding [4]	binding [5]	binding [6]	binding [7]	binding [8]	binding [9]	binding [10]	binding [11]	binding [12]	binding [13]	binding [14]	binding [15]	binding [16]
CRY1^(PHR WT) in pGADT7 (AD) (from UniProt Q43125 1-508) (domain or fragment)	no binding	no binding	binds	no binding	no binding	no binding	no binding	no binding	no binding	–	–	–	–	–	–	–
CRY1^(PHR WT)-nYFP (from UniProt Q43125 1-508) (domain or fragment)	–	–	–	–	–	–	–	–	–	binds	no binding	binds	no binding	no binding	binds	binds
